Results as given in PubChem BioAssay AID1347073 (National Center for Advancing Translational Sciences (NCATS), 2019).
Screen size: about 45,000 compounds; about 200 (0.44%) were called active. Roughly 7% stayed inconclusive and do not appear here. Calls come from the whole dose curve; as a rule, active = well fitted activation curve with a large enough effect; inconclusive = small, poorly fitted or top-dose-only effect; inactive = no such curve, though single readings can be large or run the other way. The list shows a part of the results.

assay: qHTS of TDP-43 Inhibitors: NCGC Sytravon Library Screen; conditions: yeast TDP-43 toxicity rescue, BacTiter-Glo growth, 24 h; series mostly up to 46.1 µM; growth rescue (activation): at the top concentration; note: 0% is about no effect; nearly all actives have a fitted effect of over 55% in size
Procedure, shortened: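 TDP-43-expressing yeast, pregrown in raffinose, seeded at OD600 0.02 in galactose medium with compound for 24 hr at 30 deg C. Growth read by BacTiter-Glo luminescence, so rescue of toxicity appears as activation.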

| SMILES | growth rescue (activation) |
| --- | --- |
| CC(=O)Nc1ccc(NC(=O)COC(=O)c2ccc([N+](=O)[O-])o2)cc1 | inactive: -5.76% |
| COc1ccc(CNC(=O)C2CCN(C(=O)Cc3ccccc3)CC2)cc1 | inactive: 1.55% |
| CCOc1ccc(/C=C(/NC(=O)c2ccc(Cl)cc2)C(=O)O)cc1OCC | inactive: -3.48% |
| COc1ccc(CN2C(=O)/C(=C/c3ccncc3)SC2=S)cc1 | inactive: 7.53% |
| COc1ccc(CC(=O)OCC(=O)NC2CCCCC2)cc1OC | inactive: 6.73% |
| CCOC(=O)/C(C#N)=C/c1cn(CCC(=O)O)nc1-c1ccc(Cl)cc1 | inactive: 30.9% |
| O=C(CSc1nnc(-c2ccccc2O)n1Cc1ccccc1)NNC(=O)c1ccccc1O | inactive: -16.6% |
| CCN1CCN(c2ncnc3c2cnn3-c2cccc(C)c2)CC1 | inactive: 5.47% |
| CCOc1cc(C)c(C(C)C)cc1S(=O)(=O)n1cnc(C)c1 | inactive: 20.1% |
| CCCCNc1nnc(SCC(=O)c2c[nH]c3ccccc23)s1 | inactive: -19.1% |
| COc1ccc(-c2cc(C3CC3)nc(SCC(=O)c3cccs3)c2C#N)cc1 | inactive: 10% |
| CN(Cc1ccccc1)C(=O)COC(=O)c1cc(=O)c2ccccc2o1 | inactive: 2.01% |
| O=C(Nc1ccc(Br)cc1)C1CC(O)CN1C(=O)Oc1ccccc1 (stereo not given) | inactive: -2.38% |
| Cc1ccc2oc(C(=O)N(Cc3sccc3C)C3CCS(=O)(=O)C3)c(C)c2c1 (stereo not given) | inactive: 18% |
| O=C1CN(S(=O)(=O)c2ccc(F)cc2)CCN1 | inactive: -6.3% |
| O=C1CN(C(=O)COC(=O)CNC(=O)c2ccc(Br)o2)c2ccccc2N1 | inactive: 5.28% |
| COc1ccc(NC(=O)Cc2nnc(SCC(=O)Nc3ccc(F)cc3)n2C)cc1 | inactive: 1.77% |
| Cc1ccc(NC(=O)C2C3C=CC4(O3)C2C(=O)N(CCCN2CCCC2)C4C(=O)NC2CCCCC2)cc1Cl (stereo not given) | inactive: 7.9% |
| Cc1ccc(NC(=O)CSc2nnc(-c3n[nH]c4ccccc34)n2-c2ccccc2)c(C)c1 | inactive: 19% |
| Cc1ccc(NC(=O)CCN2CCN(CCO)CC2)cc1 | inactive: -7% |
| Cc1ccc(N2CC(C(=O)N3CCC(C(=O)Nc4nncs4)CC3)CC2=O)cc1 (stereo not given) | inactive: 5.14% |
| CN(C)c1ccc(-c2ccnc3c2CC(C)(C(=O)Nc2ccc(Cl)c(C(F)(F)F)c2)O3)cc1 (stereo not given) | inactive: 2.64% |
| Cn1ccnc1Sc1ccc(/C=N/NC(=O)c2ccccc2O)cc1[N+](=O)[O-] | inactive: -20.1% |
| CCCN(CCC)C(=O)Cn1c(=O)n(CCCCCC(=O)NCc2ccccc2Cl)c(=O)c2sccc21 | inactive: -2.22% |
| O=C(NCc1ccon1)c1ccc(OC2CCN(CCc3ccccc3)CC2)cc1 | inactive: 11.7% |
| COc1ccc(F)cc1S(=O)(=O)N1CCCCC1 | inactive: 30.3% |
| Cc1oc(-c2ccccc2)cc1C(=O)Nc1cccc(/C=C\C(=O)O)c1 | inactive: 10.7% |

| SMILES | growth rescue (activation) |
| --- | --- |
| COc1ccccc1N1CCN(C(CNS(=O)(=O)c2ccccc2)c2cccnc2)CC1 (stereo not given) | inactive: 11.6% |
| Cc1nc2ccccc2nc1OCc1ccc([N+](=O)[O-])cc1 | inactive: -6.12% |
| COc1ccc(N2C(=O)Cc3c2nc(N)c(C#N)c3N)cc1 | inactive: 21.3% |
| O=C(Cn1c(CO)nc2ccccc21)NCCc1ccccc1 | inactive: 6.86% |
| Cc1ccccc1CN1CCN(C(C)C(=O)NCc2ccccc2)CC1 (stereo not given) | inactive: -5.63% |
| Cc1ccc(-n2ncc3c(SCc4ccccc4)ncnc32)cc1 | inactive: 10.9% |
| Cc1ccc(S(=O)(=O)N(C)Cc2ccc(C(=O)NN=C3C4CC5CC(C4)CC3C5)cc2)cc1 | inactive: 19.8% |
| OCCN(CCO)c1nc2ccccc2[nH]1 | inactive: 5.07% |
| CC(=O)c1cccc(NC(=O)C2Cc3c(-c4ccccc4Oc4ccccc4)ccnc3O2)c1 (stereo not given) | inactive: 23.5% |
| CCOc1ccc(C(C)=O)cc1COC(=O)CCc1cc(OC)c(OC)c(OC)c1 | inactive: 16.2% |
| Cc1ccc(-c2c[n+](CC(=O)c3cccs3)c3n2CCC3)cc1 | inactive: 9.68% |
| CCOc1ccc(S(=O)(=O)N2CCCC(C(=O)NCc3ccncc3)C2)cc1Cl (stereo not given) | inactive: -15.5% |
| Cc1ccc(S(=O)(=O)CC(=O)c2cc(C)c(O)c(C)c2)cc1 | inactive: 0.902% |
| Cc1cc([N+](=O)[O-])cc([N+](=O)[O-])c1NCC(C)C | inactive: 28.9% |
| Cc1ccc(S(C)(=O)=O)cc1C(=O)NC(C)C1CC2CCC1C2 (stereo not given) | inactive: 7.39% |
| CCCCn1c(N)c(N(CCC(C)C)C(=O)COC(=O)c2ccc([N+](=O)[O-])s2)c(=O)[nH]c1=O | inactive: 17.6% |
| Cc1ccc(-n2nc3ccc(NC(=S)NC(=O)/C=C/c4ccco4)cc3n2)cc1 | inactive: 5.3% |
| CCOC(=O)C1CCCN(C(=O)c2ccccc2)CC1 (stereo not given) | inactive: 23.2% |
| CC(=O)Nc1sc2c(c1C#N)CCC2 | inactive: 11% |
| Cc1nn(C)c(C)c1CN(C)C(=O)c1cc2n(n1)C(C(F)(F)F)CC(c1cccs1)N2 (stereo not given) | inactive: 7.68% |
| COc1cc2c(cc1OC)C(C(=O)Nc1cc(OC)c(OC)c(OC)c1)C(c1cccnc1)N(C)C2=O (stereo not given) | inactive: 11.7% |
| CCOc1ccc(C(=O)Nc2ccc3nc(N4CCN(CC)CC4)cc(C)c3c2)cc1 | inactive: 3.19% |
| COc1ccc(NC(=S)NNC(=O)c2cccnc2)cc1OC | inactive: 2.57% |
| CC(=O)/C(C#N)=C1\NC(=O)C(Cc2ccccc2)S1 (stereo not given) | inactive: 1.69% |
| COc1ccccc1C(=O)NNC(=O)C(=O)Nc1ccc(C)cc1 | inactive: 16.7% |
| CCCOc1ccccc1/C=C1\SC(N2CCCCC2)=NC1=O | inactive: 27.2% |
| Cc1cccc(N2C(=O)SC(SC(=Nc3ccccc3)Nc3ccccc3)C2=O)c1 (stereo not given) | inactive: -20.4% |

| SMILES | growth rescue (activation) |
| --- | --- |
| O=C(NCc1ccccc1)C(c1ccccn1)N(C(=O)c1csnn1)c1ccccc1F (stereo not given) | inactive: 16.9% |
| CCOc1cc(N2CCOCC2)c(OCC)cc1NC(=O)CN1C(=O)NC(CC(C)C)C1=O (stereo not given) | inactive: 0.404% |
| Cc1cc(C)c2c(=O)[nH]c(SCC(=O)Nc3ccc(Br)cc3)nc2n1 | inactive: -24.4% |
| CC(O)CNc1ncnc2cc(-c3ccc(F)cc3)sc12 (stereo not given) | inactive: 2.48% |
| O=C(CCNC(=O)c1ccco1)NCc1ccc(C(=O)O)cc1 | inactive: 9.91% |
| CCc1nc2scc(-c3ccccc3)c2c(=O)n1N | inactive: 17.5% |
| CO/N=C(\C(=O)O)c1csc(NN=C(C)C)n1 | inactive: -11.5% |
| O=C(COc1ccccc1[N+](=O)[O-])Nc1ccccc1N1CCCC1 | inactive: 18.4% |
| O=C(Nc1ccccc1)OC1C2CCC1C(N1CCCCC1)CC2 (stereo not given) | inactive: -2.37% |
| Cc1ccc(C2(C)NC(=O)N(CC(=O)N3CCc4ccccc43)C2=O)cc1 (stereo not given) | inactive: -0.519% |
| Cc1noc(C)c1S(=O)(=O)Nc1ccc(C(=O)NCc2ccccc2)cc1 | inactive: 13.5% |
| COc1ccc(C(=O)NC2CCN(C(=S)NCCc3ccccc3)CC2)cc1 | inactive: -3.52% |
| CCN(CC)CCN(C(=O)Cn1nnc(-c2ccc(C)o2)n1)C(C(=O)NC1CCCC1)c1ccc(F)cc1 (stereo not given) | inactive: 2.41% |
| Nn1c(SCC(=O)NCC2CCCO2)nnc1-c1ccco1 (stereo not given) | inactive: 5.88% |
| CCN1CCN(c2ccc([N+](=O)[O-])cc2S(=O)(=O)N2CCOCC2)CC1 | inactive: -10.4% |
| CC(=O)c1c(C)[nH]c(C(=O)COC(=O)c2ccc3c(=O)n4c(nc3c2)CCC4)c1C | inactive: -6.85% |
| CC(C)NC(=O)C1CCN(C2CCN(C(=O)c3cc4c(s3)CCCCC4)CC2)CC1 | inactive: 3.66% |
| O=C1C(Cc2ccc(O)cc2)NC(=S)N1C1CCCCC1 (stereo not given) | inactive: 23% |
| CC/C(C)=N\Nc1nc(-c2cc3cc(OC)ccc3oc2=O)cs1 | inactive: -1.26% |
| CCCc1nc(SCC(=O)NC2CCCC2)c2ccccc2n1 | inactive: 11.7% |
| CC(=O)N1CCN(c2ccc([N+](=O)[O-])cc2C#N)CC1 | inactive: 18.6% |
| COCC(C)N=C1SCCN1Cc1ccccc1 (stereo not given) | inactive: 12.3% |
| O=C(c1ccc(S(=O)(=O)NCC2CCCO2)cc1)N1CCc2ccccc21 (stereo not given) | inactive: 13.2% |
| O=C(NCCc1ccc(F)cc1)c1n[nH]c2ccccc12 | inactive: 28.9% |
| O=C(CSc1ncccn1)N1CCCC1 | inactive: -4.19% |
| Cc1ccccc1NC(=O)n1ncc2cc(Cl)ccc21 | inactive: 7.48% |
| Cc1cccc(-c2cc3nc(C)c(C)c(NCCCn4ccnc4)n3n2)c1 | inactive: 4.93% |

| SMILES | growth rescue (activation) |
| --- | --- |
| CCOC(=O)C1(Cc2ccccc2)CCCN(C(=O)c2ccc(-n3ccnc3)cc2)C1 (stereo not given) | inactive: 24.6% |
| CC(C)(C)c1ccc(NC(=O)c2ccccc2)c([N+](=O)[O-])c1 | inactive: -9.54% |
| COC(=O)C1CCCCN1C(=O)c1cccc(OC2CCN(C(=O)C3CC3)CC2)c1 (stereo not given) | inactive: 15.1% |
| C=CCN(C(=O)c1csnn1)C(C(=O)NC1CCCCC1)c1ccc(C)cc1 (stereo not given) | inactive: 3.13% |
| Cc1ccc(Cn2ccnc2SCC(=O)Nc2ccc3c(c2)OCO3)cc1 | inactive: 28.7% |
| O=C(CN1CCN(c2ccccc2F)CC1)Nc1ccc2c(c1)CCC2 | inactive: 11.3% |
| C=CCOc1ccc(/C=N/NC(=O)CC(=O)NC2CCCCC2)cc1 | inactive: 6.65% |
| COc1ccc(C(=O)C=CNNC(=O)c2ccc(Cl)cc2)cc1 | inactive: 11.7% |
| O=C(/C=C/c1ccccc1[N+](=O)[O-])N1CCN(C(=O)c2ccco2)CC1 | inactive: -0.649% |
| CCNC(=O)C1(C)CCN(C(=O)c2cc(F)cc(F)c2)C1 (stereo not given) | inactive: 8.39% |
| Cc1ccc(NS(=O)(=O)c2cc(-c3n[nH]c(=O)c4ccccc34)ccc2C)cc1 | inactive: -21.8% |
| CCOC(=O)C1(Cc2cccc(F)c2)CCN(C(=O)c2ccoc2C)CC1 | inactive: 28.8% |
| O=C(NCCc1c[nH]c2ccccc12)/C(=C\c1cccnc1)NC(=O)c1ccccc1F | inactive: -2.03% |
| CC1=CC(C)(C)n2c(O)c(N=N)c3c(C)c(C)cc1c32 | inactive: 28.2% |
| Cc1cc(C(=O)N2CCCC(C)(C(=O)NS(=O)(=O)C3CC3)C2)nn1C(C)(C)C (stereo not given) | inactive: 1.09% |
| CCN(CC)C(=S)NC(=O)c1cc(OC)c(OC)c(OC)c1 | inactive: 7.95% |
| O=C(NCCN1CCN(C(=O)c2c(F)cccc2F)CC1)C(=O)Nc1ccc(Cl)cc1 | inactive: 13.2% |
| CCOc1cc(NC(=O)C2CC2)c(OCC)cc1NC(=O)c1cc(OC)c(OC)c(OC)c1 | inactive: 12.3% |
| COc1ccc(C)cc1NC(=O)c1ccc(NS(=O)(=O)c2cccs2)cc1 | inactive: -3.01% |
| CCOC(=O)c1c(C)[nH]c(C)c1C(=O)CSc1nc2ccccc2n1CCOC | inactive: 8.93% |
| CC1CCN(CC(=O)NNC(=O)c2cccc(Br)c2)CC1 | inactive: 13% |
| CCOc1ccc(S(=O)(=O)N2CCCC(C(=O)NCc3cccnc3)C2)cc1Cl (stereo not given) | inactive: 4.57% |
| Cc1ccc(C(=O)O)cc1NC(=O)c1ccc2c(c1)C(=O)N(c1ccc([N+](=O)[O-])cc1)C2=O | inactive: 4.75% |
| CN1CCN(C(=O)c2cnn(-c3ccccc3)c2NC(=O)c2ccccc2Cl)CC1 | inactive: 6.74% |
